± gives the standard error. Variants at the floor of the assay are shown more often than the library holds them.
B1: glmS ribozyme (parent)
chain: AUAAAAGCGCCAGAACUACAGAAAUGUAGUUGACGAGGAGGAGGUUUAUCGAAUUUUCGGCGGAUGCCUCCAAA

Variants of: B1
Experiment: self-cleavage kobs at 10000 uM GlcN6P; higher = faster cleavage; RNA array
Settings: with glucosamine-6-phosphate
How it was run: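 Glucosamine-6-phosphate, from 40 μM to 10 mM in HEPES/KCl/Mg(OAc)2 buffer, was flowed over sequenced MiSeq chips carrying barcoded ribozyme variants transcribed in situ by E. coli RNA polymerase. A hybridised Cy3 probe tracked the variants at 37 °C as tiles were imaged over ~14 h. kobs, kcat and KM were obtained by fitting normalised per-tile medians to exponential decays and then applying weighted Michaelis–Menten fits across concentrations.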
For AUAAAAGCGCCAGAACUACAGAAAUGUAGGUGACGAAGAGUAGGUUUAUAGAAUUUACGGCGGAUGCCUCCAAA [U30G G37A G41U C50A U57A], the “self-cleavage kobs at 10000 uM GlcN6P” value was < 1e-05 s⁻¹.
In the case of AUAAAAGCGCCAGCACUACAGAAAUGUAGUUGACGAGGAGGAGGUUUAUCGAAUUUUCGGCGGAUGCAUACAAA [A14C C68A C70A], the “self-cleavage kobs at 10000 uM GlcN6P” value is reported as < 1e-05 s⁻¹.
AUAAAAGCGCCGGAACUACAGAAAUGUAGUUGACGAGGAGGAGGAUUAUCGAAUUUUCGGCGGAUGCCUCUAAA [A12G U45A C71U] was tested, and the “self-cleavage kobs at 10000 uM GlcN6P” value was 0.00191 ± 0.0004 s⁻¹.
In the case of AUAAAAGCGCCAGAUCUACAGAAAUGUAGUUGACGAGGAGAAGGUUUGUCGAAUUUUCGGCGGGUGCCUCCAAA [A15U G41A A48G A64G], the “self-cleavage kobs at 10000 uM GlcN6P” value is reported as < 1e-05 s⁻¹.
With AUAAAAGCGCCCGAACUACAGAAAUGUAGUUGACGGGGAGAAGGUUUAUCGAAUUUUCGGCGGAUGCCUCCAAA [A12C A36G G41A] the “self-cleavage kobs at 10000 uM GlcN6P” value was < 1e-05 s⁻¹.
AUAAAAGCGCCAUAACUACAGAAAUGUAGUUGACGCGGAGGAGUUUUAUCGAAUUUUCGGCGGAUGCCUCCAAA [G13U A36C G44U] was tested, and the “self-cleavage kobs at 10000 uM GlcN6P” value was < 1e-05 s⁻¹.
With AUAAAAGCGCCAGAACUACAGAAAUGUAAUUGACGAGGAGGCGGUUUAUCGAAUUUUCGGCGGAUGCUUGCAAA [G29A A42C C68U C70G] the “self-cleavage kobs at 10000 uM GlcN6P” value was < 1e-05 s⁻¹.
For AUAAAAGCGCUAGAACUACAGAAAUGUAGUUGACGAGGAGGAGGUAUAUCGGAUUUUCGGAGGAUGCCUCCAAA [C11U U46A A52G C61A], the “self-cleavage kobs at 10000 uM GlcN6P” value was < 1e-05 s⁻¹.
In the case of AUAAAAGCGCCAGAUCUACAGAAAUGUAGUUGACGUGGAGUAGGUUUAUCGAAUUUUCGGCGGAUGCCUCCAAA [A15U A36U G41U], the “self-cleavage kobs at 10000 uM GlcN6P” value is reported as < 1e-05 s⁻¹.
In the case of AUAAAAGCGCCAGCACUACAGAAAUGUAGUUGACGAGGAGGAGGUUUAGCGAAUUUUCGGCGGAUGCCUCCAAA [A14C U49G], the “self-cleavage kobs at 10000 uM GlcN6P” value is reported as 9.07e-05 ± 1.3e-05 s⁻¹.
AUAAAAGCGCCAGAUCUACAGAAAUGUAGUUGACGAGGAGGAGGUUUAUCGAAUUUUCGGCGGAUGGCUCAAAA [A15U C67G C71A] was tested, and the “self-cleavage kobs at 10000 uM GlcN6P” value was < 1e-05 s⁻¹.
With AUAAAAGCGCCGGAACUACAGAAAUGUAGUUGACGAGGAAGAGGUUUUUCGAAUUUUCGGCGGAUGCCCCCAAA [A12G G40A A48U U69C] the “self-cleavage kobs at 10000 uM GlcN6P” value was < 1e-05 s⁻¹.
AUAAAAGCGCCAGCACUACAGAAAUGUAGUUGACGAGGAUGAGGUUUAUCGAAUUUUCGGCGGCUUCCUCCAAA [A14C G40U A64C G66U] was tested, and the “self-cleavage kobs at 10000 uM GlcN6P” value was < 1e-05 s⁻¹.
For AUAAAAGCGCCAGAGCUACAGAAAUGUAGUUGACGAGGAGGAGGUUUGUCUAAUUUUCGGCGGAUGCCUCCAAA [A15G A48G G51U], the “self-cleavage kobs at 10000 uM GlcN6P” value was < 1e-05 s⁻¹.
AUAAAAGCGCCGGAACUACAGAAAUGUAGUUGACGAGGUGCAGGUUUAUCGAAUUUUCGGCGUAUGCCGCCAAA [A12G A39U G41C G63U U69G] was tested, and the “self-cleavage kobs at 10000 uM GlcN6P” value was < 1e-05 s⁻¹.
For AUAAAAGCGCCAGAAAUACAGAAAUGUAGUUGACGAUGAGGAGGUUUAUCGAAUUUUCGGCGGAUGCCUCCAAA [C16A G37U], the “self-cleavage kobs at 10000 uM GlcN6P” value was < 1e-05 s⁻¹.
With AUAAAAGCGCCAGAAAUACAGAAAUGUAGUUGACGAGGAGGAGGUUUAUCGAAUUUAGCUCGGAUACCUCCAAA [C16A U57A C58G G59C G60U G66A] the “self-cleavage kobs at 10000 uM GlcN6P” value was < 1e-05 s⁻¹.
In the case of AUAAAAGCGCCAAAACUACAGAAAUGUAGUUGACGAGGAGGAGGUUUAUCGAAUUUUUGGCGGAUGCCUCCAAA [G13A C58U], the “self-cleavage kobs at 10000 uM GlcN6P” value is reported as 8.94e-05 ± 8.9e-06 s⁻¹.
AUAAAAGCGCCAGAAGUACAGAAAUGUAGUUUACGAGGAGGAGGUUUAUCGAAUUUUCGGCGGAUGCCUUCAAA [C16G G32U C70U] was tested, and the “self-cleavage kobs at 10000 uM GlcN6P” value was 0.000712 ± 0.00013 s⁻¹.
With AUAAAAGCGCCAGAACUACAGAAAUGUAAUUGACCAGGAGGAGGUUUAUCGAAUUUUCGGCGGAUGACUCCAAA [G29A G35C C67A] the “self-cleavage kobs at 10000 uM GlcN6P” value was < 1e-05 s⁻¹.
For AUAAAAGCGCCAGAACUACAGAAAUGUAGCUUACGCGGAGGAGGUUUAUCGAAAUUUCGGCGGAUGCCUCCAAA [U30C G32U A36C U54A], the “self-cleavage kobs at 10000 uM GlcN6P” value was < 1e-05 s⁻¹.
For AUAAAAGCGCCAGUACUACAGAAAUGUAGUUGACGACGAGGAGGUUUAUCGAAUUUUCGGCGGCUGCCUCCAAA [A14U G37C A64C], the “self-cleavage kobs at 10000 uM GlcN6P” value was < 1e-05 s⁻¹.
With AUAAAAGCGCCAGAAAUACAGAAAUGUAGUUGACGAGGAGGAGGUUCAUCGAAUUUUCUGCGGAUGCCUCCAAA [C16A U47C G59U] the “self-cleavage kobs at 10000 uM GlcN6P” value was < 1e-05 s⁻¹.
AUAAAAGCGCCAAAACUACAGAAAUGUAGUUGACGAGUAGGACGUUUAUCGAAUUUUCGGCGGAUGCCUCCAAA [G13A G38U G43C] was tested, and the “self-cleavage kobs at 10000 uM GlcN6P” value was < 1e-05 s⁻¹.
For AUAAAAGCGCCAGAACUACAGAAAUGUAGAUGACGAGGAGGAGAUUUAUCGAAUUUUCGGCGGAUGCGUCCAAA [U30A G44A C68G], the “self-cleavage kobs at 10000 uM GlcN6P” value was < 1e-05 s⁻¹.
With AUAAAAGCGCCAGAACUAAAGAAAUGUAGUUGACGAGGAGGAGGUUUAUCGAAUUUUCGGCGGCUGCCUGCAAA [C19A A64C C70G] the “self-cleavage kobs at 10000 uM GlcN6P” value was < 1e-05 s⁻¹.
AUAAAAGCGCCAUAACUACAGAAAUGUAGUGGACGAGGAGGAGGUUUAUCGAAUUUUCGGCGGGUGCCUCCAAA [G13U U31G A64G] was tested, and the “self-cleavage kobs at 10000 uM GlcN6P” value was 0.00021 ± 5.2e-05 s⁻¹.
AUAAAAGCGCCAUAACUACAGAAAUGUAGUUGACGAGGAAGAGGUUUAUCGAAUUUUCGGCGGAUCCCUCAAAA [G13U G40A G66C C71A] was tested, and the “self-cleavage kobs at 10000 uM GlcN6P” value was 2.79e-05 ± 1.3e-05 s⁻¹.
For AUAAAAGCGCCUGAACUACAGAAAUGUAGUUGACGAGGAGGAGGUGUGUCGAAUUUUCGGCGGAUGCCUCCAAA [A12U U46G A48G], the “self-cleavage kobs at 10000 uM GlcN6P” value was 9.42e-05 ± 2.1e-05 s⁻¹.
AUAAAAGCGCCUGAACUACAGAAAUGUAGUUGACGAGUAGGAGGUUUAUCGAAUUUUUGGCGGAUGCCUCCAAA [A12U G38U C58U] was tested, and the “self-cleavage kobs at 10000 uM GlcN6P” value was < 1e-05 s⁻¹.
With AUAAAAGCGCGAGAACUACAGAAAUGUAGUUGACGAGGAGGAGGUUUAUUGAAUUUUCCGCGGAUGCCUCCAAA [C11G C50U G59C] the “self-cleavage kobs at 10000 uM GlcN6P” value was < 1e-05 s⁻¹.
AUAAAAGCGCCAGAAAUACAGAAAUGUAGUUGACGAGGAGGAGGUCUAUCGAAUCUUCGGCGGAUGCCUCCAAA [C16A U46C U55C] was tested, and the “self-cleavage kobs at 10000 uM GlcN6P” value was 7.09e-05 ± 1.6e-05 s⁻¹.
In the case of AUAAAAGCGCCAGAUCUACAGAAAUGUAGUUGACGAAGAGGAGGUUUAUCGAAUUUUCGGCGGAUGCCUGCAAA [A15U G37A C70G], the “self-cleavage kobs at 10000 uM GlcN6P” value is reported as < 1e-05 s⁻¹.
AUAAAAGCGCUAGAACUACAGAAAUGUAGUUGACGAGGUGGAGGUUUAUCGAAUUUACGGGGGAUGCCUCCAAA [C11U A39U U57A C61G] was tested, and the “self-cleavage kobs at 10000 uM GlcN6P” value was < 1e-05 s⁻¹.
For AUAAAAGCGCCGGAAAUACAGAAAUGUAGUUGACGAGGAGGUGGUUUUUCGAUUUGUCGGCGGAUGCCUCAAAA [A12G C16A A42U A48U A53U U56G C71A], the “self-cleavage kobs at 10000 uM GlcN6P” value was < 1e-05 s⁻¹.
For AUAAAAGCGCCAGAACUACAUAAAUGUACUUGACGAGGAGGAGGUUUAUCGAAUUUUCGGCGGAUGCCUCCAAA [G21U G29C], the “self-cleavage kobs at 10000 uM GlcN6P” value was 0.00256 ± 0.0005 s⁻¹.
For AUAAAAGCGCCAGAAAUACAGAAAUGUAGUUGACGUGGAGGAGUUUUAUCGAAUUUUCGGCGGAUGCCUCCAAA [C16A A36U G44U], the “self-cleavage kobs at 10000 uM GlcN6P” value was < 1e-05 s⁻¹.

Reference: the supplement of paper PMC7125110
